The other results are listed elsewhere or left out.

For six molecules, binding signal results are on record in paper PMC12136788.

To fix the notation:
T1: UNK ZnF1-3 (human, UniProt Q9C0B0 31-174)
T1 sequence: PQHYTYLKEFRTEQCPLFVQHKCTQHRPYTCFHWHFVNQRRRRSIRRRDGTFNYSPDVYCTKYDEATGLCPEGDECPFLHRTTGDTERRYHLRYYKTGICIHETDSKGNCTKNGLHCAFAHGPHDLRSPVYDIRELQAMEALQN

B1: chr1:244855233:244855234:+_ENSG00000121644_ENST00000302550|hu_mus|hu_hu_hu_mus_True|48_48 (ssRNA)
RNA: GGGAGUUCUACAGUCCGACGAUCCAUCAGAUGGUAGGCGUUGCCCUUAUACUCUUUCCCCAGUUCUUCUACAAUUUUCUCUAUAUCAUCUUCUAGGAAGUCCGUACUUCCUAGAACAACAGCUUCUUUAAAUUUAAAUGUUUCCAACAGAGGAUUGAGCAUCA
B2: chr14:78183846:78183847:+_ENSG00000119705_ENST00000557342|hu_hu|hu_hu_hu_mus_False|58_88 (ssRNA)
RNA: GGGAGUUCUACAGUCCGACGAUCUCUCAGAAAUCUUUCUUCAUCAGCAUCAUCAGAUCCGUGCAAAGCCUUUGCUCUUCUAGUGUGAACGUGGAUCUAUGGGAGGGAAAGCACUGUCAGAAAAGGUAAUUUUUUUUUUAAAGACAACAGAGGAUUGAGCAUCA
B3: chr17:46298169:46298170:+_ENSMUSG00000023952_ENSMUST00000024748|mus_mus|motif|central (ssRNA)
RNA: GGGAGUUCUACAGUCCGACGAUCUUUACCUCCUCUGUUCCUUCCGUUCUUCUUCUUCCCCUUUGGGCCCCCGCAACUGCUGCGGCCGCCGGCCCCCCGAGCUUUGAGGUUUCCACCCAUGGCCGGGCCUCCUCCGGGCCGGCACAACAGAGGAUUGAGCAUCA
B4: chr17:55757426:55757427:+_ENSG00000153944_ENST00000284073|hu_mus|motif|central (ssRNA)
RNA: GGGAGUUCUACAGUCCGACGAUCAUAGAGUCUAUGCCCACCUCCCGCUCCGCGUAUCACAACUUCGAUUCAGUGUGUGCGGAAGUCCCAGAUGAAAAGUCUUACAGUCUCAGAACUGGUACCAAAAAUGGAGAGUAACAUCACCAACAGAGGAUUGAGCAUCA
B5: chr9:26842284:26842285:-_ENSG00000120159_ENST00000333916|hu_mus|FALSE|FALSE (ssRNA)
RNA: GGGAGUUCUACAGUCCGACGAUCAUACAAAAUUAUAUGACAUGGCUUCAUUCAAACACACAUAAUAUUCAAGUCAGAAAACUACACUGGCUUUUUUAUAUCACCAGCUUUCAUGAGAGCCUUAAUUGCUCUUGCCCUCAUUUCCAACAGAGGAUUGAGCAUCA
B6: chr5:28742860:28742861:+_ENSMUSG00000048271_ENSMUST00000114884|mus_hu|FALSE|FALSE (ssRNA)
RNA: GGGAGUUCUACAGUCCGACGAUCCCCCUCAAAAUUUGUCUGGAAAAAUGAUGAGAUUUACUCUUUAGAAGAAUAUCAGUAUAAGGAUUUAACAAACGUGGCCAGACCAGUGGUAAUGCAAGGUUAUCUAAAGUAGCUAAGUGACAACAGAGGAUUGAGCAUCA

In this test the target is T1, UNK ZnF1-3. Briefly: nsRBNS (natural sequence RNA bind-n-seq); RBNS binding buffer (assumed for nsRBNS): 25 mM Tris pH 7.5, 150 mM KCl, 3 mM MgCl2, 0.01% Triton X-100, 500 ug/ml BSA, 20 U/ml SUPERase-In, 4 C; UNK is unkempt and MSI1 is Musashi-1; names of the RNAs are library labels; protein concentration not given here; high values mean tight binding.
B1: the binding signal came out at 1.33 enrichment R.

B2 registered a binding signal of 1.76 enrichment R.

In the case of B3, the binding signal came out at 0.655 enrichment R.

As to B4, the binding signal amounted to 1.54 enrichment R.

On to B5, for which the binding signal turned out to be 0.855 enrichment R.

In turn, B6 displayed a binding signal of 1.33 enrichment R.
